# Test results from the supplement of paper PMC8728848.
# The list shows a part of the results.
# Legend:
# Assay in all cases: glycan array binding signal (z-score within array); higher = stronger binding
# Settings in all cases: glycan notation: IUPAC condensed, linker removed
# [1] = target: GlcNAc6S(b1-3)Gal(b1-4)GlcNAc
# Procedure, shortened: (§1)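 Glycan array data were curated from 3228 arrays in the Consortium for Functional Glycomics database and kept only where the protein sequence was available. Glycan names were converted to IUPAC-condensed notation, and columns mapping to the same glycan were averaged. The binding signal is a within-array Z-score, averaged across arrays of the same protein sequence at different concentrations or buffers and across linkers. Negative Z-scores can be read as non-binding.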
# Kdn(a2-3)Gal(b1-3)GalNAc = target: Kdn(a2-3)Gal(b1-3)GalNAc
# Procedure, shortened: as §1
# Kdn(a2-3)Gal(b1-3)GlcNAc = target: Kdn(a2-3)Gal(b1-3)GlcNAc
# Procedure, shortened: as §1
# Kdn(a2-3)Gal(b1-4)Glc = target: Kdn(a2-3)Gal(b1-4)Glc
# Procedure, shortened: as §1
# Kdn(a2-3)Gal(b1-4)GlcNAc = target: Kdn(a2-3)Gal(b1-4)GlcNAc
# Procedure, shortened: as §1
# [2] = target: Kdn(a2-3)Gal(b1-4)[Fuc(a1-3)]GlcNAc
# Procedure, shortened: as §1
# Kdn(a2-6)Gal(b1-4)GlcNAc = target: Kdn(a2-6)Gal(b1-4)GlcNAc
# Procedure, shortened: as §1
# [3] = target: Man(a1-2)Man(a1-2)Man(a1-3)Man
# Procedure, shortened: as §1
# [4] = target: Man(a1-2)Man(a1-2)Man(a1-6)[Man(a1-3)]Man
# Procedure, shortened: as §1
# Man(a1-2)Man(a1-3)Man = target: Man(a1-2)Man(a1-3)Man
# Procedure, shortened: as §1
# [5] = target: Man(a1-2)Man(a1-3)[Man(a1-2)Man(a1-6)]Man
# Procedure, shortened: as §1
# [6] = target: Man(a1-2)Man(a1-3)[Man(a1-2)Man(a1-6)]Man(a1-6)[Man(a1-2)Man(a1-2)Man(a1-3)]Man
# Procedure, shortened: as §1
# [7] = target: Man(a1-2)Man(a1-3)[Man(a1-2)Man(a1-6)]Man(a1-6)[Man(a1-2)Man(a1-2)Man(a1-3)]Man(b1-4)GlcNAc(b1-4)GlcNAc
# Procedure, shortened: as §1
# [8] = target: Man(a1-2)Man(a1-3)[Man(a1-6)]Man(a1-6)[Man(a1-2)Man(a1-3)]Man(b1-4)GlcNAc(b1-4)GlcNAc
# Procedure, shortened: as §1
# [9] = target: Man(a1-2)Man(a1-6)[Man(a1-3)]Man(a1-6)[Man(a1-2)Man(a1-2)Man(a1-3)]Man
# Procedure, shortened: as §1
# [10] = target: Man(a1-2)Man(a1-6)[Man(a1-3)]Man(a1-6)[Man(a1-2)Man(a1-2)Man(a1-3)]Man(b1-4)GlcNAc(b1-4)GlcNAc
# Procedure, shortened: as §1
# Man(a1-3)[Man(a1-6)]Man = target: Man(a1-3)[Man(a1-6)]Man
# Procedure, shortened: as §1
# [11] = target: Man(a1-3)[Man(a1-6)]Man(a1-6)[Man(a1-2)Man(a1-3)]Man(b1-4)GlcNAc(b1-4)GlcNAc
# Procedure, shortened: as §1
# [12] = target: Man(a1-3)[Man(a1-6)]Man(a1-6)[Man(a1-3)]Man
# Procedure, shortened: as §1
# [13] = target: Man(a1-3)[Man(a1-6)]Man(a1-6)[Man(a1-3)]Man(b1-4)GlcNAc(b1-4)GlcNAc
# Procedure, shortened: as §1
# [14] = target: Man(a1-3)[Man(a1-6)]Man(b1-4)GlcNAc(b1-4)GlcNAc
# Procedure, shortened: as §1
# [15] = target: Man(a1-3)[Man(a1-6)]Man(b1-4)GlcNAc(b1-4)[Fuc(a1-6)]GlcNAc
# Procedure, shortened: as §1
# Man(a1-6)Man = target: Man(a1-6)Man
# Procedure, shortened: as §1
# Man(b1-4)GlcNAc = target: Man(b1-4)GlcNAc
# Procedure, shortened: as §1
# MurNAc(b1-4)GlcNAc = target: MurNAc(b1-4)GlcNAc
# Procedure, shortened: as §1
# Neu5Ac(a2-3)Gal = target: Neu5Ac(a2-3)Gal
# Procedure, shortened: as §1
# [16] = target: Neu5Ac(a2-3)Gal(b1-3)GalNAc
# Procedure, shortened: as §1
# [17] = target: Neu5Ac(a2-3)Gal(b1-3)GalNAc(b1-3)Gal(a1-4)Gal(b1-4)Glc
# Procedure, shortened: as §1
# [18] = target: Neu5Ac(a2-3)Gal(b1-3)GalNAc(b1-3)Gal(b1-4)GlcNAc
# Procedure, shortened: as §1
# [19] = target: Neu5Ac(a2-3)Gal(b1-3)GalNAc(b1-4)Gal(b1-4)Glc
# Procedure, shortened: as §1
# [20] = target: Neu5Ac(a2-3)Gal(b1-3)GalNAc(b1-4)[Neu5Ac(a2-3)]Gal(b1-4)Glc
# Procedure, shortened: as §1
# [21] = target: Neu5Ac(a2-3)Gal(b1-3)GalNAc(b1-4)[Neu5Ac(a2-8)Neu5Ac(a2-3)]Gal(b1-4)Glc
# Procedure, shortened: as §1
# [22] = target: Neu5Ac(a2-3)Gal(b1-3)GalNAc6S
# Procedure, shortened: as §1
# [23] = target: Neu5Ac(a2-3)Gal(b1-3)GlcNAc
# Procedure, shortened: as §1
# [24] = target: Neu5Ac(a2-3)Gal(b1-3)GlcNAc(b1-2)Man
# Procedure, shortened: as §1
# [25] = target: Neu5Ac(a2-3)Gal(b1-3)GlcNAc(b1-2)Man(a1-3)[GlcNAc(b1-4)][Neu5Ac(a2-3)Gal(b1-3)GlcNAc(b1-2)Man(a1-6)]Man(b1-4)GlcNAc(b1-4)GlcNAc
# Procedure, shortened: as §1
# [26] = target: Neu5Ac(a2-3)Gal(b1-3)GlcNAc(b1-2)Man(a1-3)[Neu5Ac(a2-3)Gal(b1-3)GlcNAc(b1-2)Man(a1-6)]Man(b1-4)GlcNAc(b1-4)GlcNAc
# Procedure, shortened: as §1
# [27] = target: Neu5Ac(a2-3)Gal(b1-3)GlcNAc(b1-2)[Neu5Ac(a2-3)Gal(b1-3)GlcNAc(b1-4)]Man(a1-6)[Neu5Ac(a2-3)Gal(b1-3)GlcNAc(b1-2)Man(a1-3)]Man(b1-4)GlcNAc(b1-4)GlcNAc
# Procedure, shortened: as §1
# [28] = target: Neu5Ac(a2-3)Gal(b1-3)GlcNAc(b1-3)Gal(b1-3)GlcNAc
# Procedure, shortened: as §1
# [29] = target: Neu5Ac(a2-3)Gal(b1-3)GlcNAc(b1-3)Gal(b1-4)GlcNAc
# Procedure, shortened: as §1
# [30] = target: Neu5Ac(a2-3)Gal(b1-3)GlcNAc(b1-3)GalNAc
# Procedure, shortened: as §1
# [31] = target: Neu5Ac(a2-3)Gal(b1-3)GlcNAc(b1-4)Gal(b1-4)Glc
# Procedure, shortened: as §1
# [32] = target: Neu5Ac(a2-3)Gal(b1-3)GlcNAc(b1-6)GalNAc
# Procedure, shortened: as §1
# [33] = target: Neu5Ac(a2-3)Gal(b1-3)GlcNAc6S
# Procedure, shortened: as §1
# [34] = target: Neu5Ac(a2-3)Gal(b1-3)[Fuc(a1-4)]GlcNAc
# Procedure, shortened: as §1
binder,measurement,setting,value
WGA (Triticum vulgare) (protein) QRCGEQGSNMECPNNLCCSQYGYCGMGGDYCGKGCQNGACWTSKRCGSQAGGATCPNNHCCSQYGHCGFGAEYCGAGCQGGPCRADIKCGSQSGGKLCPNNLCCSQWGFCGLGSEFCGGGCQSGACSTDKPCGKDAGGRVCTNNYCCSKWGSCGIGPGYCGAGCQSGGCDAVFAGAITANSTLLAE,glycan array binding signal (z-score),[1],0.189
same,glycan array binding signal (z-score),Kdn(a2-3)Gal(b1-3)GalNAc,-0.314
same,glycan array binding signal (z-score),Kdn(a2-3)Gal(b1-3)GlcNAc,-0.378
same,glycan array binding signal (z-score),Kdn(a2-3)Gal(b1-4)Glc,-0.326
same,glycan array binding signal (z-score),Kdn(a2-3)Gal(b1-4)GlcNAc,-0.292
same,glycan array binding signal (z-score),[2],-0.312
same,glycan array binding signal (z-score),Kdn(a2-6)Gal(b1-4)GlcNAc,-0.324
same,glycan array binding signal (z-score),[3],-0.378
same,glycan array binding signal (z-score),[4],-0.343
same,glycan array binding signal (z-score),Man(a1-2)Man(a1-3)Man,-0.347
same,glycan array binding signal (z-score),[5],-0.372
same,glycan array binding signal (z-score),[6],-0.337
same,glycan array binding signal (z-score),[7],-0.435
same,glycan array binding signal (z-score),[8],-0.475
same,glycan array binding signal (z-score),[9],-0.334
same,glycan array binding signal (z-score),[10],-0.434
same,glycan array binding signal (z-score),Man(a1-3)[Man(a1-6)]Man,-0.371
same,glycan array binding signal (z-score),[11],-0.207
same,glycan array binding signal (z-score),[12],-0.305
same,glycan array binding signal (z-score),[13],-0.472
same,glycan array binding signal (z-score),[14],-0.188
same,glycan array binding signal (z-score),[15],-0.358
same,glycan array binding signal (z-score),Man(a1-6)Man,-0.308
same,glycan array binding signal (z-score),Man(b1-4)GlcNAc,-0.365
same,glycan array binding signal (z-score),MurNAc(b1-4)GlcNAc,1.9
same,glycan array binding signal (z-score),Neu5Ac(a2-3)Gal,-0.347
same,glycan array binding signal (z-score),[16],-0.304
same,glycan array binding signal (z-score),[17],-0.306
same,glycan array binding signal (z-score),[18],1.67
same,glycan array binding signal (z-score),[19],-0.391
same,glycan array binding signal (z-score),[20],-0.364
same,glycan array binding signal (z-score),[21],-0.347
same,glycan array binding signal (z-score),[22],-0.294
same,glycan array binding signal (z-score),[23],-0.219
same,glycan array binding signal (z-score),[24],-0.293
same,glycan array binding signal (z-score),[25],-0.33
same,glycan array binding signal (z-score),[26],-0.307
same,glycan array binding signal (z-score),[27],-0.375
same,glycan array binding signal (z-score),[28],-0.327
same,glycan array binding signal (z-score),[29],0.549
same,glycan array binding signal (z-score),[30],-0.309
same,glycan array binding signal (z-score),[31],-0.334
same,glycan array binding signal (z-score),[32],-0.351
same,glycan array binding signal (z-score),[33],-0.264
same,glycan array binding signal (z-score),[34],-0.283
